The source gives no read counts; variants with many changes may rest on few reads.
B1: LINE1-full (parent)
chain: UACGUAGGUGGUUUUCCCCUGAUAGUGCUAAGGGGGCCUGGAAGUUUGGACUGGGCAGAGCUCAACACAGCGUGGCAAAGUGGCUGUGGCUAGACUGCCUCUCUGGAUUCCUCGUCACUCAGCAGGGCAUCUCUGAGAGAAAUGCC

Variants of: B1
Assay: self-cleavage, relative activity (ratio to wild type); higher = more cleavage; in vitro, sequencing; the parent is a self-cleaving ribozyme

Variant | self-cleavage
UACGUAGGUGGUUUUCCCCUGGUAGUGCUAAGGGGGCCUGGAAGUUUGGACUGGGCAGAGCUCAACACUGCGUGGCAAAGUGGCUGUGGCUAGACCGCCUCUCUGGAUUCCUCGUCACUCAGCAGGGCAUCUCUGAGAGAAAUGCC [A22G A69U U96C] | 0.12
UACGUAGGUGGUUUUCCCCUGGUAGUGCUAAGGGGGCCUGGAAGUUUGGACUGGGCGGAGCUCAACACAGCGUGGCAAAGUGGCUGUGACUAGACUGCCUCUCUGGAUUCCUCGUCACCCAGCGGGGCAUCUCUGAGAGAAAUGCC [A22G A57G G89A U119C A124G] | 0.16
UACGUAGGUGGUUUUCCCCUGGUAGUGCUAAGGGGGCCUGGAAGUUUGGUCUGGGCAGAGCUCAACACAGCGUGGCAAAGUGGCUGUGGCUAGACUGCCUCUCUGGAUUCCUCGUCACUCAGCAGGGCAUCUCUGAGGGAGAUGCC [A22G A50U A138G A141G] | 0.62
UACGUAGGUGGUUUUCCCCUGGUAGUGCUAAGGGGGCCUGGAAGUUUGGACUGGGCAGAGCUCAACACAGCGUGGCAAAGUGGCUGUGGCUAGGCUGCCUCUCUGGAUUCCUCGUCACUCAGCAGGGCAUCUCUGAGAGAAGUGCC [A22G A94G A142G] | 0.22
UACGUAGGUGGUUUUCCCCUGGUAGUGCUAAGGGGGCCUGGAAGUUUGGACUGGGCAGAGCUCAACACAGCGUGGCAAGGUGGCUGUGGCUAGACUGCCUCUCUGGAUUCCUCGUCACUCAGCAGGGCAACUCUGAGAGAAAUGCC [A22G A79G U130A] | 2.12
UACGUAGGUGGUUUUCCCCUGGUAGUGCUAAGGGGGCCUGGAAGUUUGGACUGGGCAGAGCUCAACGCAGCGUGGCAAAGUGGCUGUGGCUAGACUGCCUCUCUGGAUUCCCCGUCACUCAGCAGGGCAUCUCUGAGAGAGAUGUC [A22G A67G U112C A141G C145U] | 0
UACGUAGGUGGUUUUCCCCUGGUAGUGCUAAGGGGGCCUGGAAGUUUGGACUGGGCUGAGCUCUACACAGCGUGGCAAAGUGGCUGUGGCUAGACUGCCUCUCUGGAUUCCUCGUCACUCAGCAGGGCAUCUCUGAGAGAAAUGCC [A22G A57U A64U] | 0
UACGUAGGUGGUUUUCCCCUGGUAGUGCUAAGGGGGCCUGGAAGUUUGGACUGGGCAGAGCUCUACACAGCGUGGCAAUGUGGCUGUGGCUAGACUGCCUCUCUGGAUUCCUCGUCACUCAGCAGGGCAUCUCUGAGAGAAAUGCC [A22G A64U A79U] | 0.79
UACGUAGGUGGUUUUCCCCUGGUAGUGCUAAGGGGGCCUGGAAGUUUGGACUGGGCAGAGCUCAACACAGCGUGGCAAAGUGGCUGUGGCUUGACUGCCUCUCUGGAUUCCUCGUCACUCAGCAGGGCAUCUCUGAGAGGAAUGCC [A22G A92U A140G] | 1.26
UACGUAGGUGGUUUUCCCCUGGUAGUGCUAAGGGGGCCUGGAAGUUUGGACUGGGCAGAGCUCAACACGGCGUGGCAAAGUGGCUGUGGCUAGACUGCCCCUCUGGAUUCCUCGUCUCUCAGCAGGGCAUCUCUGAGAGAAAUGCC [A22G A69G U100C A117U] | 0.97
UACGUAGGUGGUUUUCCCCUGGUAGUGCUAAGGGGGCCUGGAAGUUUGGACUGGGCGGAGCUCAACACAGCGUGGCAAAGUGGCUGUGGCUAGACUGCCUCUCUGGAUUCCUCGUCACUCAGCAGGGCAUCUCUGAGAGGAAUGCC [A22G A57G A140G] | 0.55
UACGUAGGUGGUUUUCCCCUGGUAGUGCUAAGGGGGCCUGGAAGUUUGGACUGGGCAGAGCUCAACUCAGCGUGGCAAAGUGGCUGUGGCUAGACUGCCUCUCUGGAUUCCUCGUCACUCAGAAGGGCAUCUCUGAGAGAAAUGCC [A22G A67U C123A] | 0.13
UACGUAGGUGGUUUUCCCCUGGUAGUGCUAAGGGGGCCUGGAAGUUUGGACUGGGCAGGGCUCAACACAGCGUGGCAAAGUGGCUGUGGCUAGACUGCCUCUCUGGAUUCCUCGUCACUCAGCAGGGCAUCUCUGAGAGAGAUGCC [A22G A59G A141G] | 0.12
UACGUAGGUGGUUUUCCCCUGGUAGUGCUAAGGGGGCCUGGAAGUUUGGACUGGGCAGAGCUCAGCACAGCGUGGCAAAGUGGCUGUGGCAAGACUGCCUCUCUGGAUUCCUCGUCACUCAGCAGGGCAUCUCUGAGAGAAAUGCC [A22G A65G U91A] | 0.18
UACGUAGGUGGUUUUCCCCUGGUAGUGCUAAGGGGGCCUGGAAGUUUGGACUGGGCAGAGCUCAACACAGCGUGGCAUAGUGGCUGUGGCUAGACUGCCUCUCUGGAUUCCUCGUCACUCAGCGGGGCAUCUCUGAGAGAGAUGCC [A22G A78U A124G A141G] | 1.87
UACGUAGGUGGUUUUCCCCUGGUAGUGCUAAGGGGGCCUGGAAGUUUGGACUGGGCAGAGCUCAACACAGCGUGGCAGAGUGGCUGUGGCUAGACUGCCUCUCUGGAUUCCUCGUCUCUCAGCAGGGCAUCCCUGAGAGAAAUGCC [A22G A78G A117U U132C] | 1.08
UACGUAGGUGGUUUUCCCCUGGUAGUGCUAAGGGGGCCUGGAAGUUUGGACUGGGCGGAGCUCGACACAGCGUGGCAAAGUGGCUGUGGCUAGACUGCCUCUCUGGAUUCCUCGUCACUCAGCAGGGCAUCUCUGAGAGAAAUGCC [A22G A57G A64G] | 0.43
UACGUAGGUGGUUUUCCCCUGGUAGUGCUAAGGGGGCCUGGAAGUUUGGACUGGGCAGAGCUCAACACAGCGUGGCAGAGUGGCUGUGGCUAGACUGCCUCUCUGGAUUCCUCGUUACUCAGCAGGGCAUCUCUGAGGGAAAUGCC [A22G A78G C116U A138G] | 1.09
UACGUAGGUGGUUUUCCCCUGGUAGUGCUAAGGGGGCCUGGAAGUUUGGACUGGGCAGAGCUCAACACAGCGUGGCAGAGUGGCUGUGGCUAGACUGCCUCUCUGGAUUCCUCGUCACUCAGCAGGGCAUCUCUGUGAGAAAUGCC [A22G A78G A136U] | 0.99
UACGUAGGUGGUUUUCCCCUGGUAGUGCUAAGGGGGCCUGGAAGUUUGGGCUGGGCAGAGCUCAACACGGCGUGGCUAAGUGGCUGUGGCUAGAUUGCCUCUCUGGUUUCCUCGUCACUCAGCAGGGCAUCUCUGAGAGAAAUGCC [A22G A50G A69G A77U C95U A107U] | 0.07

Source: the RNAGym collection of RNA variant scans (doi:10.7554/elife.90254)
